Laboratory results: the supplement of paper PMC12355420
Counter-ions that a name gives are not always drawn. The list shows a part of the results. Most values come without repeats; read them as rough.

tested on: HeLa VPS33A reporter cells; experiment: relative cell viability (CellMask signal) vs DMSO (fraction of DMSO); HeLa model of a glycosaminoglycan (GAG) storage disease; KI is knock-in and KO knock-out; SDC1 is syndecan 1; higher = less cytotoxic; conditions: 50 µM; 24 h
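Also: primary screen of an FDA-approved drug library in HeLa reporter cells in 96-well format, CellMask signal normalized to DMSO-treated wells set as 1, under 0.5 deemed highly cytotoxic.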

Compound	relative cell viability
N#C[C@@H]1C[C@@H]2C[C@@H]2N1C(=O)[C@@H](N)C12CC3CC(CC(O)(C3)C1)C2 [Saxagliptin]	1.2
CCC(=O)NS(=O)(=O)c1ccc(-c2c(-c3ccccc3)noc2C)cc1 [Parecoxib Sodium]	1.25
Cc1c(N(C)C)c(=O)n(-c2ccccc2)n1C [Amidopyrine]	1.07
CC(=O)O[C@H]1Cc2ccccc2N(C(N)=O)c2ccccc21 [Eslicarbazepine acetate]	1.04
O=CC[C@@H](O)[C@H](O)[C@H](O)CO [2-Deoxy-D-glucose]	1.4
CCCc1nc(C)c2c(=O)nc(-c3cc(S(=O)(=O)N4CCN(CC)CC4)ccc3OCC)[nH]n12 [Vardenafil]	0.95
Nc1nc(N)nc(-c2cc(Cl)ccc2Cl)n1 [Irsogladine]	1.03
CO[C@@]1(NC(=O)C(C(=O)O)c2ccc(O)cc2)C(=O)N2C(C(=O)O)=C(CSc3nnnn3C)CO[C@@H]21 (some centres undefined) [Moxalactam (sodium salt)]	0.942
N#CC1(c2ccc(NC(=O)c3cccnc3NCc3ccncc3)cc2)CCCC1 [Apatinib]	0.984
O=c1c(-n2ccnn2)c[nH]n1-c1cc(N2CCOCC2)ncn1 [Molidustat (BAY85-3934)]	1.17
CN(c1nccc(=O)[nH]1)C1CCN(c2nc3ccccc3n2Cc2ccc(F)cc2)CC1 [Mizolastine]	1.21
CCCCN1CCCCC1C(=O)Nc1c(C)cccc1C (centres undefined) [Bupivacaine HCl]	1.18
O=c1[nH]c(=O)n(C2CCCO2)cc1F (centres undefined)	1.08
OCc1ccc(O[C@@H]2O[C@H](CO)[C@@H](O)[C@H](O)[C@H]2O)cc1 [Gastrodin]	1.02
CN(C)CC(c1ccc(O)cc1)C1(O)CCCCC1 (centres undefined) [Desvenlafaxine]	1.05
CCCN(CCC)S(=O)(=O)c1ccc(C(=O)O)cc1 [Probenecid]	0.977
CCCCC1=NC2(CCCC2)C(=O)N1Cc1ccc(-c2ccccc2-c2nnn[nH]2)cc1 [Irbesartan]	0.962
Nc1ccc(S(N)(=O)=O)cc1 [Sulfanilamide]	1.04
Nc1nnc(-c2cccc(Cl)c2Cl)c(N)n1 [Lamotrigine]	1.04
NC(=O)N1c2ccccc2C=Cc2ccccc21 [Carbamazepine]	1.2

Compound	relative cell viability
CN1CCc2nc(C(=O)N[C@@H]3C[C@@H](C(=O)N(C)C)CC[C@@H]3NC(=O)C(=O)Nc3ccc(Cl)cn3)sc2C1 [Edoxaban]	1.29
CC(=O)N[C@H](Cc1ccc2ccccc2c1)C(=O)N[C@H](Cc1ccc(Cl)cc1)C(=O)N[C@H](Cc1cccnc1)C(=O)N[C@@H](CO)C(=O)N[C@@H](Cc1ccc(O)cc1)C(=O)N[C@H](CCCNC(N)=O)C(=O)N[C@@H](CC(C)C)C(=O)N[C@@H](CCCNC(=N)N)C(=O)N1CCC[C@H]1C(=O)N[C@H](C)C(N)=O [Cetrorelix]	0.868
CN(C)C(=O)c1ccc(S(=O)(=O)c2ccc(NC(=O)[C@@](C)(O)C(F)(F)F)c(Cl)c2)cc1	1.25
NC[C@H]1O[C@H](O[C@H]2[C@H](O[C@@H]3O[C@H](CO)[C@@H](O)[C@H]3O)[C@@H](O)[C@H](N)C[C@@H]2N)[C@H](N)[C@@H](O)[C@@H]1O [Ribostamycin Sulfate]	0.947
N[C@@H](C=O)[C@@H](O)[C@H](O)[C@H](O)CO [Chitosamine hydrochloride]	1
O=C(O)[C@H]1O[C@@H](Oc2cc3oc(-c4ccc(O)cc4)cc(=O)c3c(O)c2O)[C@H](O)[C@@H](O)[C@@H]1O [Scutellarin]	1.02
O=C(O)c1ccc(O)c(O)c1 [3,4-Dihydroxybenzoic acid]	0.988
C=C1CC[C@@H]2[C@](C)(CO)[C@H](O)CC[C@@]2(C)[C@H]1C/C=C1\C=COC1=O [Dehydroandrographolide]	0.953
Cc1c(C)c2c(c(C)c1O)CC[C@@](C)(CCC[C@H](C)CCC[C@H](C)CCCC(C)C)O2 [alpha-tocopherol]	0.968
CC1(C)S[C@@H]2[C@H](NC(=O)[C@H](N)c3ccccc3)C(=O)N2[C@H]1C(=O)O [Ampicillin Trihydrate]	0.982
COc1cc(C(=O)O)ccc1NC(=O)[C@@H]1N[C@@H](CC(C)(C)C)[C@](C#N)(c2ccc(Cl)cc2F)[C@H]1c1cccc(Cl)c1F	0.547
OC[C@H]1O[C@H](OCC2O[C@@H](O)[C@H](O)[C@@H](O)[C@@H]2O)[C@H](O)[C@@H](O)[C@H]1O (some centres undefined) [Melibiose]	1.08
CCCc1nn(C)c2c(=O)[nH]c(-c3cc(S(=O)(=O)N4CCN(C)CC4)ccc3OCC)nc12 [Sildenafil mesylate]	1.04
[F-].[Na+] [sodium fluoride]	1.12
CCN[C@H]1C[C@H](C)S(=O)(=O)c2sc(S(N)(=O)=O)cc21 [Dorzolamide HCl]	1.07
CCc1c2c(nc3ccc(OC(=O)N4CCC(N5CCCCC5)CC4)cc13)-c1cc3c(c(=O)n1C2)COC(=O)[C@]3(O)CC [Irinotecan]	0.965
Cc1ccc(Nc2c(F)cccc2Cl)c(CC(=O)O)c1 [Lumiracoxib]	0.991
CC(=O)OCC(=O)[C@@]1(O)CC[C@H]2[C@@H]3CCC4=CC(=O)CC[C@]4(C)[C@H]3C(=O)C[C@@]21C [Cortisone acetate]	1.07
CCC(CC)O[C@@H]1C=C(C(=O)O)C[C@H](N)[C@H]1NC(C)=O [Oseltamivir acid]	1.02
